94 sequences from the supplement of paper PMC3334620 can be followed below.

In all, about 33,000 sequences were measured (“E-score (-0.5 to 0.5)”: median about -0.035, highest 2% from about 0.35 on). Some of the results follow.

The target in the assay is T1, Pdr3 (UniProt P33200).
T1 sequence: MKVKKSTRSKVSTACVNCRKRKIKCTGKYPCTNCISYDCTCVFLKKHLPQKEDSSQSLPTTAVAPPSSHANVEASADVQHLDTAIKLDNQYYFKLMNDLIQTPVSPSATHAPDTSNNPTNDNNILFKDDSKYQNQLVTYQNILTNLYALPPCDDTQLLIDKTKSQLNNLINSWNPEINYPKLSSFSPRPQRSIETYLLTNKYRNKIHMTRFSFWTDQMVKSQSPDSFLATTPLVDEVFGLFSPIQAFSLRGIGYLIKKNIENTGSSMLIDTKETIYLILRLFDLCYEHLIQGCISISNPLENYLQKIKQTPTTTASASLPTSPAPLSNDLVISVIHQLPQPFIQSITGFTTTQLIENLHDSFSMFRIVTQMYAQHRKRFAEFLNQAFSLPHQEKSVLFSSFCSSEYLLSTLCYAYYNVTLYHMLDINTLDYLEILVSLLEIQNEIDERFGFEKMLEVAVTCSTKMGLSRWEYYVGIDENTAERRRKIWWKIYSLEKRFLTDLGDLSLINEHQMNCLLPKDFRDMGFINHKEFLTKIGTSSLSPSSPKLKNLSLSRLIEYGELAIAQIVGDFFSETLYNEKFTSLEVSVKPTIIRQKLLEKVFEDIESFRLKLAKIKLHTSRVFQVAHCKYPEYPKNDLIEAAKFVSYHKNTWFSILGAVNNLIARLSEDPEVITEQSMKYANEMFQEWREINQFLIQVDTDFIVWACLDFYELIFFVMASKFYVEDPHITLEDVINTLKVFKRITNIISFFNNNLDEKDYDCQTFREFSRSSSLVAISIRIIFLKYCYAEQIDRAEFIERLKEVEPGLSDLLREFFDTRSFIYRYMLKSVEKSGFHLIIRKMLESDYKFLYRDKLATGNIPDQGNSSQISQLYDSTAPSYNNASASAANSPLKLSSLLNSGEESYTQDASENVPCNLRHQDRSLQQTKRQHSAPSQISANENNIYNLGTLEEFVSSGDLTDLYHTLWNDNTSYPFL
As to the kind of experiment: PBM E-score (8-mer binding enrichment) (E-score (-0.5 to 0.5)); higher = stronger / more preferred TF binding; most listed sequences are background and not binding sites. As to conditions: protein concentration: 200 nM; construct: GST-full length. In a few lines:
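Detection of bound protein used fluorescent anti-GST, with scans normalised by masliner. The proteins were GST-tagged yeast transcription factors applied at about 100-200 nM to universal all-10-mer Agilent arrays made double-stranded by primer extension. Each ungapped eight-base word, pooled with its reverse complement, was scored with an E-score from the Universal PBM Analysis Suite.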
As for GGAGTGCC, the “PBM E-score” value came out at 0.229.

On to GCCCGACA, for which the “PBM E-score” value is 0.181.

Consider ACGATGAC, for which the “PBM E-score” value was -0.126.

In the case of CGCGTCCG, the “PBM E-score” value was found to be 0.272.

As for AACCGATG, the “PBM E-score” value was 0.0088.

On to ATCTTCCC, for which the “PBM E-score” value is 0.268.

Turning to CCAAGATC, the “PBM E-score” value is -0.0726.

With GTCAATCA, the “PBM E-score” value was -0.144.

On to AAATGTCT, for which the “PBM E-score” value was -0.155.

On to AATGAGCC, for which the “PBM E-score” value was -0.0929.

Consider ATATACCA, for which the “PBM E-score” value was -0.119.

With ATTAATGG, the “PBM E-score” value was 0.0723.

For the sequence GCTGAGTA, the “PBM E-score” value is -0.107.

Take ACTCGTAC: the “PBM E-score” value was -0.217.

For the sequence GGCTAACA, the “PBM E-score” value was -0.132.

As for ATACCGAC, the “PBM E-score” value was -0.152.

As for CCAACTGG, the “PBM E-score” value was -0.00749.

For the sequence ATTAACTA, the “PBM E-score” value was -0.199.

As to AAATATAC, the “PBM E-score” value was 0.0626.

With CGACCAAA, the “PBM E-score” value amounted to 0.164.

Turning to CGTATGGA, the “PBM E-score” value was -0.0276.

AACTAGTT: the “PBM E-score” value came out at 0.0669.

Take GTTCTCCA: the “PBM E-score” value is -0.0906.

TAGGTGGA: the “PBM E-score” value is -0.268.

In the case of CCATATAG, the “PBM E-score” value is -0.131.

As for GGATCATA, the “PBM E-score” value was 0.0938.

For the sequence ATCGAATG, the “PBM E-score” value was -0.0988.

CTATGTAA: the “PBM E-score” value is -0.139.

CGATCCAA: the “PBM E-score” value was -0.115.

For the sequence AGCACTAT, the “PBM E-score” value is -0.102.

Consider CACACTTA, for which the “PBM E-score” value is -0.0169.

With GAGGAGTA, the “PBM E-score” value is -0.0674.

As for GCAACGTA, the “PBM E-score” value is -0.192.

For AGTGGCTG, the “PBM E-score” value was determined as 0.118.

In the case of AGGCCTGA, the “PBM E-score” value is -0.0734.

Regarding AGTCTATC, the “PBM E-score” value is -0.172.

On to CCCTTAAG, for which the “PBM E-score” value was -0.0669.

In the case of GGTGAACC, the “PBM E-score” value is -0.0447.

With CTCGTGGC, the “PBM E-score” value was 0.00874.

Take CCCCGATA: the “PBM E-score” value was 0.112.

For the sequence AACGGCCT, the “PBM E-score” value is -0.015.

Turning to CCTAAGTA, the “PBM E-score” value is -0.0438.

Regarding AGTTAGAA, the “PBM E-score” value was found to be 0.137.

As for CCGGTGTA, the “PBM E-score” value came out at 0.153.

For CTAAAAGA, the “PBM E-score” value was -0.283.

Take AATAACGC: the “PBM E-score” value is -0.207.

For the sequence TATATTGA, the “PBM E-score” value amounted to 0.131.

In the case of ACAACATC, the “PBM E-score” value is -0.0263.

Take ATCCGATC: the “PBM E-score” value turned out to be 0.275.

Take GCTTATCA: the “PBM E-score” value is -0.0726.

On to GATACGAC, for which the “PBM E-score” value is -0.11.

For the sequence GGCTTCCC, the “PBM E-score” value is -0.0254.

In the case of AGGTCGAT, the “PBM E-score” value came out at 0.17.

ACGTTCAT: the “PBM E-score” value was -0.371.

For AAGAATCT, the “PBM E-score” value was -0.0912.

Take GACACCCA: the “PBM E-score” value is -0.139.

With GGGCCAGA, the “PBM E-score” value is -0.0964.

Take ACTCTTAG: the “PBM E-score” value was -0.224.

GATCTCCA: the “PBM E-score” value is 0.0339.

As for ATCCGCCA, the “PBM E-score” value was 0.185.

Regarding GATATCGA, the “PBM E-score” value was -0.0357.

As to GAACCAAC, the “PBM E-score” value is 0.0294.

For the sequence CGCCGTTA, the “PBM E-score” value amounted to 0.0777.

On to GGTTCCCA, for which the “PBM E-score” value was -0.0344.

Consider GGAATGAC, for which the “PBM E-score” value was 0.225.

As for GTCACGAC, the “PBM E-score” value was -0.118.

In the case of ATAACCAC, the “PBM E-score” value is -0.0238.

Consider CCCAACAG, for which the “PBM E-score” value was -0.274.

Consider AAATCAGT, for which the “PBM E-score” value was 0.0365.

As for ATTGGAGC, the “PBM E-score” value is 0.0566.

CAAACGCC: the “PBM E-score” value is 0.135.

Regarding CAGACGAC, the “PBM E-score” value was -0.111.

Turning to ACGTTAGA, the “PBM E-score” value is -0.117.

AAGTCACA: the “PBM E-score” value was -0.176.

For the sequence GTGCCTTA, the “PBM E-score” value is -0.179.

Turning to AGTACCTC, the “PBM E-score” value is -0.175.

In the case of GTTTAACA, the “PBM E-score” value is -0.238.

Consider GAACAGGA, for which the “PBM E-score” value was -0.00932.

For ATGTCTAA, the “PBM E-score” value was -0.15.

As for AGTGATAC, the “PBM E-score” value is -0.144.

For the sequence CCTCCACA, the “PBM E-score” value was -0.167.

Consider CAAGTTGC, for which the “PBM E-score” value amounted to 0.0412.

Turning to CAGCGCCC, the “PBM E-score” value is -0.0855.

As to CTAATTGC, the “PBM E-score” value amounted to 0.0796.

As for GTCGGCAA, the “PBM E-score” value stood at 0.0307.

Consider CCTGTTGC, for which the “PBM E-score” value is 0.0205.

On to GGGTCTCA, for which the “PBM E-score” value is -0.00302.

As to GGGATAAC, the “PBM E-score” value is 0.179.

Consider AATAGGCT, for which the “PBM E-score” value was -0.0988.

For AAGACCCG, the “PBM E-score” value stood at 0.107.

For CAAATGCC, the “PBM E-score” value is -0.0704.

As to CCGAGCGA, the “PBM E-score” value is 0.253.

With GAACTCCC, the “PBM E-score” value was 0.132.

As to GGGCCTCA, the “PBM E-score” value was 0.032.
